# The other results are listed elsewhere or left out.
# B1: StcE (Escherichia coli), O82882.2 (protein)
# chain: ADNNSAIYFNTSQPINDLQGSLAAEVKFAQSQILPAHPKEGDSQPHLTSLRKSLLLVRPVKADDKTPVQVEARDDNNKILGTLTLYPPSSLPDTIYHLDGVPEGGIDFTPHNGTKKIINTVAEVNKLSDASGSSIHSHLTNNALVEIHTANGRWVRDIYLPQGPDLEGKMVRFVSSAGYSSTVFYGDRKVTLSVGNTLLFKYVNGQWFRSGELENNRITYAQHIWSAELPAHWIVPGLNLVIKQGNLSGRLNDIKIGAPGELLLHTIDIGMLTTPRDRFDFAKDKEAHREYFQTIPVSRMIVNNYAPLHLKEVMLPTGELLTDMDPGNGGWHSGTMRQRIGKELVSHGIDNANYGLNSTAGLGENSHPYVVAQLAAHNSRGNYANGIQVHGGSGGGGIVTLDSTLGNEFSHEVGHNYGLGHYVDGFKGSVHRSAENNNSTWGWDGDKKRFIPNFYPSQTNEKSCLNNQCQEPFDGHKFGFDAMAGGSPFSAANRFTMYTPNSSAIIQRFFENKAVFDSRSSTGFSKWNADTQEMEPYEHTIDRAEQITASVNELSESKMAELMAEYAVVKVHMWNGNWTRNIYIPTASADNRGSILTINHEAGYNSYLFINGDEKVVSQGYKKSFVSDGQFWKERDVVDTREARKPEQFGVPVTTLVGYYDPEGTLSSYIYPAMYGAYGFTYSDDSQNLSDNDCQLQVDTKEGQLRFRLANHRANNTVMNKFHINVPTESQPTQATLVCNNKILDTKSLTPAPEGLTYTVNGQALPAKENEGCIVSVNSGKRYCLPVGQRSGYSLPDWIVGQEVYVDSGAKAKVLLSDWDNLSYNRIGEFVGNVNPADMKKVKAWNGQYLDFSKPRSMRVVYK
# Key:
# Test in all cases: glycan array binding signal (z-score within array); higher = stronger binding
# Settings in all cases: glycan notation: IUPAC condensed, linker removed
# [1] = target: Gal(a1-3)[Gal(a1-4)]Gal(b1-4)GlcNAc
# Procedure, shortened: (§1)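 Glycan array data came from 3228 arrays in the Consortium for Functional Glycomics database, and only arrays with an available protein sequence were kept. Glycan names were put into IUPAC-condensed notation, and columns mapping to the same glycan were averaged. The binding signal is a within-array Z-score, averaged across arrays of one protein sequence run at different concentrations or buffers and across linkers. A negative Z-score can be read as non-binding.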
# [2] = target: Gal(a1-4)Gal(b1-3)GlcNAc(b1-2)Man(a1-3)[Gal(a1-4)Gal(b1-3)GlcNAc(b1-2)Man(a1-6)]Man(b1-4)GlcNAc(b1-4)GlcNAc
# Procedure, shortened: as §1
# [3] = target: Gal(a1-4)Gal(b1-4)Glc
# Procedure, shortened: as §1
# [4] = target: Gal(a1-4)Gal(b1-4)GlcNAc
# Procedure, shortened: as §1
# [5] = target: Gal(a1-4)Gal(b1-4)GlcNAc(b1-2)Man(a1-3)[Gal(a1-4)Gal(b1-4)GlcNAc(b1-2)Man(a1-6)]Man(b1-4)GlcNAc(b1-4)GlcNAc
# Procedure, shortened: as §1
# [6] = target: Gal(a1-4)Gal(b1-4)GlcNAc(b1-3)Gal(b1-4)Glc
# Procedure, shortened: as §1
# [7] = target: Gal(a1-4)GlcNAc
# Procedure, shortened: as §1
# [8] = target: Gal(a1-6)Glc
# Procedure, shortened: as §1
# [9] = target: Gal(b1-2)Gal
# Procedure, shortened: as §1
# [10] = target: Gal(b1-3)Gal
# Procedure, shortened: as §1
# [11] = target: Gal(b1-3)Gal(b1-4)GlcNAc
# Procedure, shortened: as §1
# [12] = target: Gal(b1-3)Gal(b1-4)GlcNAc(b1-2)Man(a1-3)[Gal(b1-3)Gal(b1-4)GlcNAc(b1-2)Man(a1-6)]Man(b1-4)GlcNAc(b1-4)GlcNAc
# Procedure, shortened: as §1
# [13] = target: Gal(b1-3)GalNAc
# Procedure, shortened: as §1
# [14] = target: Gal(b1-3)GalNAc(a1-3)[Fuc(a1-2)]Gal(b1-4)Glc
# Procedure, shortened: as §1
# [15] = target: Gal(b1-3)GalNAc(a1-3)[Fuc(a1-2)]Gal(b1-4)GlcNAc
# Procedure, shortened: as §1
# [16] = target: Gal(b1-3)GalNAc(b1-3)Gal(a1-4)Gal(b1-4)Glc
# Procedure, shortened: as §1
# [17] = target: Gal(b1-3)GalNAc(b1-4)Gal(b1-4)Glc
# Procedure, shortened: as §1
# [18] = target: Gal(b1-3)GalNAc(b1-4)[Neu5Ac(a2-3)]Gal(b1-4)Glc
# Procedure, shortened: as §1
# [19] = target: Gal(b1-3)GlcNAc
# Procedure, shortened: as §1
# [20] = target: Gal(b1-3)GlcNAc(a1-3)Gal(b1-4)GlcNAc
# Procedure, shortened: as §1
# [21] = target: Gal(b1-3)GlcNAc(a1-6)Gal(b1-4)GlcNAc
# Procedure, shortened: as §1
# [22] = target: Gal(b1-3)GlcNAc(b1-2)Man(a1-3)[Gal(b1-3)GlcNAc(b1-2)Man(a1-6)]Man(b1-4)GlcNAc(b1-4)GlcNAc
# Procedure, shortened: as §1
# [23] = target: Gal(b1-3)GlcNAc(b1-2)Man(a1-3)[Gal(b1-3)GlcNAc(b1-2)Man(a1-6)]Man(b1-4)GlcNAc(b1-4)[Fuc(a1-6)]GlcNAc
# Procedure, shortened: as §1
# [24] = target: Gal(b1-3)GlcNAc(b1-2)Man(a1-3)[GlcNAc(b1-4)][Gal(b1-3)GlcNAc(b1-2)Man(a1-6)]Man(b1-4)GlcNAc(b1-4)GlcNAc
# Procedure, shortened: as §1
# [25] = target: Gal(b1-3)GlcNAc(b1-2)[Gal(b1-3)GlcNAc(b1-6)]Man(a1-6)[Gal(b1-3)GlcNAc(b1-2)Man(a1-3)]Man(b1-4)GlcNAc(b1-4)GlcNAc
# Procedure, shortened: as §1
# [26] = target: Gal(b1-3)GlcNAc(b1-3)Gal(b1-3)GlcNAc
# Procedure, shortened: as §1
# [27] = target: Gal(b1-3)GlcNAc(b1-3)Gal(b1-4)Glc
# Procedure, shortened: as §1
# [28] = target: Gal(b1-3)GlcNAc(b1-3)Gal(b1-4)GlcNAc
# Procedure, shortened: as §1
# [29] = target: Gal(b1-3)GlcNAc(b1-3)Gal(b1-4)GlcNAc(b1-6)[Gal(b1-3)GlcNAc(b1-3)]Gal(b1-4)Glc
# Procedure, shortened: as §1
# [30] = target: Gal(b1-3)GlcNAc(b1-3)Gal(b1-4)[Fuc(a1-3)]GlcNAc(b1-6)[Gal(b1-3)GlcNAc(b1-3)]Gal(b1-4)Glc
# Procedure, shortened: as §1
# [31] = target: Gal(b1-3)GlcNAc(b1-3)GalNAc
# Procedure, shortened: as §1
# [32] = target: Gal(b1-3)GlcNAc(b1-6)Gal(b1-4)GlcNAc
# Procedure, shortened: as §1
# [33] = target: Gal(b1-3)GlcNAc(b1-6)GalNAc
# Procedure, shortened: as §1
# [34] = target: Gal(b1-3)GlcNAc6S
# Procedure, shortened: as §1
# [35] = target: Gal(b1-3)[Fuc(a1-4)]GlcNAc
# Procedure, shortened: as §1
# [36] = target: Gal(b1-3)[Fuc(a1-4)]GlcNAc(b1-2)Man(a1-3)[Gal(b1-3)[Fuc(a1-4)]GlcNAc(b1-2)Man(a1-6)]Man(b1-4)GlcNAc(b1-4)[Fuc(a1-6)]GlcNAc
# Procedure, shortened: as §1
# [37] = target: Gal(b1-3)[Fuc(a1-4)]GlcNAc(b1-3)Gal(b1-3)[Fuc(a1-4)]GlcNAc
# Procedure, shortened: as §1
# [38] = target: Gal(b1-3)[Fuc(a1-4)]GlcNAc(b1-3)Gal(b1-4)GlcNAc
# Procedure, shortened: as §1
# [39] = target: Gal(b1-3)[Fuc(a1-4)]GlcNAc(b1-3)Gal(b1-4)[Fuc(a1-3)]GlcNAc
# Procedure, shortened: as §1
# [40] = target: Gal(b1-3)[Fuc(a1-4)]GlcNAc(b1-6)GalNAc
# Procedure, shortened: as §1
# [41] = target: Gal(b1-3)[GlcNAc(b1-6)]GalNAc
# Procedure, shortened: as §1
# [42] = target: Gal(b1-3)[Neu5Ac(a2-6)]GalNAc
# Procedure, shortened: as §1
# [43] = target: Gal(b1-3)[Neu5Ac(a2-6)]GlcNAc(b1-4)Gal(b1-4)Glc
# Procedure, shortened: as §1
# [44] = target: Gal(b1-3)[Neu5Ac(a2-6)]GlcNAc(b1-6)Gal(b1-4)Glc
# Procedure, shortened: as §1
# [45] = target: Gal(b1-3)[Neu5Ac(b2-6)]GalNAc
# Procedure, shortened: as §1
# [46] = target: Gal(b1-4)Gal
# Procedure, shortened: as §1
# [47] = target: Gal(b1-4)GalNAc(a1-3)[Fuc(a1-2)]Gal(b1-4)GlcNAc
# Procedure, shortened: as §1
# [48] = target: Gal(b1-4)GalNAc(b1-3)[Fuc(a1-2)]Gal(b1-4)GlcNAc
# Procedure, shortened: as §1
# [49] = target: Gal(b1-4)Glc
# Procedure, shortened: as §1
# [50] = target: Gal(b1-4)Glc6S
# Procedure, shortened: as §1
# [51] = target: Gal(b1-4)GlcNAc
# Procedure, shortened: as §1
# [52] = target: Gal(b1-4)GlcNAc(a1-6)Gal(b1-4)GlcNAc
# Procedure, shortened: as §1
# [53] = target: Gal(b1-4)GlcNAc(b1-2)Man
# Procedure, shortened: as §1
# [54] = target: Gal(b1-4)GlcNAc(b1-2)Man(a1-3)Man(b1-4)GlcNAc(b1-4)GlcNAc
# Procedure, shortened: as §1
# [55] = target: Gal(b1-4)GlcNAc(b1-2)Man(a1-3)[Gal(b1-4)GlcNAc(b1-2)Man(a1-6)]Man(b1-4)GlcNAc(b1-4)GlcNAc
# Procedure, shortened: as §1
# [56] = target: Gal(b1-4)GlcNAc(b1-2)Man(a1-3)[Gal(b1-4)GlcNAc(b1-2)Man(a1-6)]Man(b1-4)GlcNAc(b1-4)[Fuc(a1-6)]GlcNAc
# Procedure, shortened: as §1
# [57] = target: Gal(b1-4)GlcNAc(b1-2)Man(a1-3)[Gal(b1-4)GlcNAc(b1-2)][GlcNAc(b1-4)]Man(b1-4)GlcNAc(b1-4)GlcNAc
# Procedure, shortened: as §1
# [58] = target: Gal(b1-4)GlcNAc(b1-2)Man(a1-3)[GlcNAc(b1-2)Man(a1-6)]Man(b1-4)GlcNAc(b1-4)GlcNAc
# Procedure, shortened: as §1
# [59] = target: Gal(b1-4)GlcNAc(b1-2)Man(a1-3)[Man(a1-6)]Man(b1-4)GlcNAc(b1-4)GlcNAc
# Procedure, shortened: as §1
# [60] = target: Gal(b1-4)GlcNAc(b1-2)Man(a1-6)Man(b1-4)GlcNAc(b1-4)GlcNAc
# Procedure, shortened: as §1
binder,measurement,setting,value
B1,glycan array binding signal (z-score),[1],-0.042
same,glycan array binding signal (z-score),[2],-0.156
same,glycan array binding signal (z-score),[3],-0.39
same,glycan array binding signal (z-score),[4],-0.215
same,glycan array binding signal (z-score),[5],-0.125
same,glycan array binding signal (z-score),[6],-0.159
same,glycan array binding signal (z-score),[7],-0.285
same,glycan array binding signal (z-score),[8],-0.394
same,glycan array binding signal (z-score),[9],0.601
same,glycan array binding signal (z-score),[10],0.264
same,glycan array binding signal (z-score),[11],-0.172
same,glycan array binding signal (z-score),[12],-0.137
same,glycan array binding signal (z-score),[13],-0.045
same,glycan array binding signal (z-score),[14],-0.121
same,glycan array binding signal (z-score),[15],-0.17
same,glycan array binding signal (z-score),[16],-0.145
same,glycan array binding signal (z-score),[17],-0.65
same,glycan array binding signal (z-score),[18],-0.25
same,glycan array binding signal (z-score),[19],0.058
same,glycan array binding signal (z-score),[20],-0.109
same,glycan array binding signal (z-score),[21],-0.162
same,glycan array binding signal (z-score),[22],-0.154
same,glycan array binding signal (z-score),[23],-0.106
same,glycan array binding signal (z-score),[24],0.01
same,glycan array binding signal (z-score),[25],-0.071
same,glycan array binding signal (z-score),[26],-0.142
same,glycan array binding signal (z-score),[27],-0.002
same,glycan array binding signal (z-score),[28],-0.148
same,glycan array binding signal (z-score),[29],-0.126
same,glycan array binding signal (z-score),[30],-0.137
same,glycan array binding signal (z-score),[31],0.314
same,glycan array binding signal (z-score),[32],-0.141
same,glycan array binding signal (z-score),[33],-0.165
same,glycan array binding signal (z-score),[34],-0.103
same,glycan array binding signal (z-score),[35],1.36
same,glycan array binding signal (z-score),[36],4.66
same,glycan array binding signal (z-score),[37],0.458
same,glycan array binding signal (z-score),[38],-0.156
same,glycan array binding signal (z-score),[39],-0.129
same,glycan array binding signal (z-score),[40],-0.007
same,glycan array binding signal (z-score),[41],-0.217
same,glycan array binding signal (z-score),[42],-0.226
same,glycan array binding signal (z-score),[43],0.194
same,glycan array binding signal (z-score),[44],-0.176
same,glycan array binding signal (z-score),[45],-0.443
same,glycan array binding signal (z-score),[46],-0.063
same,glycan array binding signal (z-score),[47],0.123
same,glycan array binding signal (z-score),[48],-0.151
same,glycan array binding signal (z-score),[49],-0.031
same,glycan array binding signal (z-score),[50],-0.148
same,glycan array binding signal (z-score),[51],-0.057
same,glycan array binding signal (z-score),[52],-0.153
same,glycan array binding signal (z-score),[53],-0.167
same,glycan array binding signal (z-score),[54],-0.115
same,glycan array binding signal (z-score),[55],-0.173
same,glycan array binding signal (z-score),[56],-0.164
same,glycan array binding signal (z-score),[57],-0.145
same,glycan array binding signal (z-score),[58],-0.172
same,glycan array binding signal (z-score),[59],0.979
same,glycan array binding signal (z-score),[60],-0.131
